In the supplement of paper PMC10369915:
Some of the results follow. No stated cut-off is given here; in the data, active = 3.2 or more and inactive = the rest. Only a few entries rise above the background.

Biological target: SHP2 C-SH2 domain E139D
Assay: enrichment score (SH2-bound / input frequency) (ratio); bacterial display of known human phosphotyrosine sites (pTyr-Var adds point mutants) read by sequencing; higher = stronger binding; tyrosines were phosphorylated by kinases first
Conditions: peptide library: pTyr-Var
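Further: displayed peptides selected on beads carrying the immobilized SH2 domain, with library peptides lacking any tyrosine serving as negative controls.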

Enrichment score, inactive:
ILGRYYETSSI [PAX2_Y73_G76S] 1.27, CNPLCYPTIMI [OR6K6_Y160_R159C] 0.586, EVQKNYEHLFK [PAM16_Y77] 0.66, FADIAYNYRHA [PAH_Y166_G171A] 1.12, HFIKLYEEKTG [PARP1_Y618_M615I] 1.63, SKGFAYVHFDS [PABPC5_Y149_YF] 1.95, HSFNSYTFPRL [PAK5_Y316_YF] 0.697, KKEGPYDVVVL [PARK7_Y67] 0.764, ILGRFYERGSI [PAX5_Y73_T75R_YF] 1.4, SECCKYKIDNL [OSMR_Y689_P694L] 1.1, PLLTDYSPQLQ [OTC_Y345_S340P] 1.1, FADIAYNYRDG [PAH_Y166_H170D] 1.15, DLTQDYEEWKR [ORC6_Y232] 0.771, VERRVYAEDPY [PCCA_Y401_C398R] 0.68, MPVDGYISGLL [PAK6_Y81] 0.823, DVLEFCNSKKT [PAK1_Y131_Y131C] 1.09, EAVKNYTEKRG [PBRM1_Y672_D674E] 0.652

Enrichment score, active:
VASIFYTLVIP [OR8K3_Y277] 3.3

Biological target: SHP2 C-SH2 domain wild-type
Assay: as above
Conditions: peptide library: pTyr-Var

Enrichment score, inactive:
ILGRYYETSSI [PAX2_Y73_G76S] 0.863, CNPLCYPTIMI [OR6K6_Y160_R159C] 0.891, EVQKNYEHLFK [PAM16_Y77] 0.786, FADIAYNYRHA [PAH_Y166_G171A] 0.899, HFIKLYEEKTG [PARP1_Y618_M615I] 0.761, SKGFAYVHFDS [PABPC5_Y149_YF] 1.62, HSFNSYTFPRL [PAK5_Y316_YF] 0.458, KKEGPYDVVVL [PARK7_Y67] 0.804, ILGRFYERGSI [PAX5_Y73_T75R_YF] 1.03, SECCKYKIDNL [OSMR_Y689_P694L] 0.882, PLLTDYSPQLQ [OTC_Y345_S340P] 0.772, FADIAYNYRDG [PAH_Y166_H170D] 0.971, DLTQDYEEWKR [ORC6_Y232] 0.661, VASIFYTLVIP [OR8K3_Y277] 3.05, VERRVYAEDPY [PCCA_Y401_C398R] 0.43, MPVDGYISGLL [PAK6_Y81] 0.776, DVLEFCNSKKT [PAK1_Y131_Y131C] 0.823, EAVKNYTEKRG [PBRM1_Y672_D674E] 0.718

Biological target: SHP2 N-SH2 domain L43F
Assay: as above
Conditions: peptide library: pTyr-Var

Enrichment score, inactive:
ILGRYYETSSI [PAX2_Y73_G76S] 1.19, CNPLCYPTIMI [OR6K6_Y160_R159C] 0.724, EVQKNYEHLFK [PAM16_Y77] 0.773, FADIAYNYRHA [PAH_Y166_G171A] 0.757, HFIKLYEEKTG [PARP1_Y618_M615I] 1.39, SKGFAYVHFDS [PABPC5_Y149_YF] 1.67, HSFNSYTFPRL [PAK5_Y316_YF] 0.507, KKEGPYDVVVL [PARK7_Y67] 0.856, ILGRFYERGSI [PAX5_Y73_T75R_YF] 1.11, SECCKYKIDNL [OSMR_Y689_P694L] 1.13, PLLTDYSPQLQ [OTC_Y345_S340P] 0.992, FADIAYNYRDG [PAH_Y166_H170D] 1.43, DLTQDYEEWKR [ORC6_Y232] 0.737, VASIFYTLVIP [OR8K3_Y277] 3.11, VERRVYAEDPY [PCCA_Y401_C398R] 0.648, MPVDGYISGLL [PAK6_Y81] 0.79, DVLEFCNSKKT [PAK1_Y131_Y131C] 0.745, EAVKNYTEKRG [PBRM1_Y672_D674E] 0.617

Biological target: SHP2 N-SH2 domain T42A
Assay: as above
Conditions: peptide library: pTyr-Var

Enrichment score, inactive:
ILGRYYETSSI [PAX2_Y73_G76S] 0.772, CNPLCYPTIMI [OR6K6_Y160_R159C] 0.678, EVQKNYEHLFK [PAM16_Y77] 0.513, FADIAYNYRHA [PAH_Y166_G171A] 0.764, HFIKLYEEKTG [PARP1_Y618_M615I] 1.08, SKGFAYVHFDS [PABPC5_Y149_YF] 1.63, HSFNSYTFPRL [PAK5_Y316_YF] 0.48, KKEGPYDVVVL [PARK7_Y67] 0.461, ILGRFYERGSI [PAX5_Y73_T75R_YF] 1.28, SECCKYKIDNL [OSMR_Y689_P694L] 0.76, PLLTDYSPQLQ [OTC_Y345_S340P] 0.829, FADIAYNYRDG [PAH_Y166_H170D] 0.842, DLTQDYEEWKR [ORC6_Y232] 0.611, VASIFYTLVIP [OR8K3_Y277] 3.04, VERRVYAEDPY [PCCA_Y401_C398R] 0.474, MPVDGYISGLL [PAK6_Y81] 0.655, DVLEFCNSKKT [PAK1_Y131_Y131C] 0.708, EAVKNYTEKRG [PBRM1_Y672_D674E] 0.589

Biological target: SHP2 N-SH2 domain T52S
Assay: as above
Conditions: peptide library: pTyr-Var

Enrichment score, inactive:
ILGRYYETSSI [PAX2_Y73_G76S] 1.05, CNPLCYPTIMI [OR6K6_Y160_R159C] 0.754, EVQKNYEHLFK [PAM16_Y77] 0.697, FADIAYNYRHA [PAH_Y166_G171A] 0.872, HFIKLYEEKTG [PARP1_Y618_M615I] 1.53, SKGFAYVHFDS [PABPC5_Y149_YF] 1.59, HSFNSYTFPRL [PAK5_Y316_YF] 0.573, KKEGPYDVVVL [PARK7_Y67] 0.642, ILGRFYERGSI [PAX5_Y73_T75R_YF] 1.3, SECCKYKIDNL [OSMR_Y689_P694L] 0.765, PLLTDYSPQLQ [OTC_Y345_S340P] 1.09, FADIAYNYRDG [PAH_Y166_H170D] 0.89, DLTQDYEEWKR [ORC6_Y232] 0.864, VASIFYTLVIP [OR8K3_Y277] 2.89, VERRVYAEDPY [PCCA_Y401_C398R] 0.531, MPVDGYISGLL [PAK6_Y81] 0.731, DVLEFCNSKKT [PAK1_Y131_Y131C] 0.74, EAVKNYTEKRG [PBRM1_Y672_D674E] 0.623

Biological target: SHP2 N-SH2 domain wild-type
Assay: as above
Conditions: peptide library: pTyr-Var

Enrichment score, inactive:
ILGRYYETSSI [PAX2_Y73_G76S] 0.927, CNPLCYPTIMI [OR6K6_Y160_R159C] 0.861, EVQKNYEHLFK [PAM16_Y77] 0.813, FADIAYNYRHA [PAH_Y166_G171A] 1.07, HFIKLYEEKTG [PARP1_Y618_M615I] 1.18, SKGFAYVHFDS [PABPC5_Y149_YF] 1.54, HSFNSYTFPRL [PAK5_Y316_YF] 0.744, KKEGPYDVVVL [PARK7_Y67] 0.644, ILGRFYERGSI [PAX5_Y73_T75R_YF] 1.34, SECCKYKIDNL [OSMR_Y689_P694L] 1.13, PLLTDYSPQLQ [OTC_Y345_S340P] 0.894, FADIAYNYRDG [PAH_Y166_H170D] 1.12, DLTQDYEEWKR [ORC6_Y232] 0.691, VASIFYTLVIP [OR8K3_Y277] 2.93, VERRVYAEDPY [PCCA_Y401_C398R] 0.65, MPVDGYISGLL [PAK6_Y81] 0.844, DVLEFCNSKKT [PAK1_Y131_Y131C] 0.649, EAVKNYTEKRG [PBRM1_Y672_D674E] 0.813
